{"sequences": {"note": "By UniProt entry, the sequences of proteins in these tests, tags left out.", "UniProt Q8IUF8": "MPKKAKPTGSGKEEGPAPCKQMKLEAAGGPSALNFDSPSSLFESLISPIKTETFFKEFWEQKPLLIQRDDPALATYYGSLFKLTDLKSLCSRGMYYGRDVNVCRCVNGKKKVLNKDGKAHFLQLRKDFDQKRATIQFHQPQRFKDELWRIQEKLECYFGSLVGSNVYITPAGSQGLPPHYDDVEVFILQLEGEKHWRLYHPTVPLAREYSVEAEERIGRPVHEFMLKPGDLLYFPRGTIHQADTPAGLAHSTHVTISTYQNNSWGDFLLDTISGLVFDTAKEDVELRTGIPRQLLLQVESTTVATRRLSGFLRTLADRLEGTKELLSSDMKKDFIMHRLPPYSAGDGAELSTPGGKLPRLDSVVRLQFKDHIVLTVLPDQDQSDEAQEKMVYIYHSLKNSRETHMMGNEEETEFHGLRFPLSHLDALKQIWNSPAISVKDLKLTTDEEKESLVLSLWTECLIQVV", "UniProt Q09028": "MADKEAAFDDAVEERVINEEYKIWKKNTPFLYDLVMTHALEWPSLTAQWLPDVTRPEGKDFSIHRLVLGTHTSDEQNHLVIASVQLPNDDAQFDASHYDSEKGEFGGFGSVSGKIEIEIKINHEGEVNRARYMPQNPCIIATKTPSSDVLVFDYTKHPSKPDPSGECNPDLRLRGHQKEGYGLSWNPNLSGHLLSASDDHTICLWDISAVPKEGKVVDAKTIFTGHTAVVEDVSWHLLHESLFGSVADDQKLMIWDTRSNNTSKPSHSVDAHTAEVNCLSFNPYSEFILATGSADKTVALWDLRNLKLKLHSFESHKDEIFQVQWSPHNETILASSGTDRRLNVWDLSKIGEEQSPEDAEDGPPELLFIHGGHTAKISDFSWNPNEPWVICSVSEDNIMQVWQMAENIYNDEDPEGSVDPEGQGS", "UniProt P12956": "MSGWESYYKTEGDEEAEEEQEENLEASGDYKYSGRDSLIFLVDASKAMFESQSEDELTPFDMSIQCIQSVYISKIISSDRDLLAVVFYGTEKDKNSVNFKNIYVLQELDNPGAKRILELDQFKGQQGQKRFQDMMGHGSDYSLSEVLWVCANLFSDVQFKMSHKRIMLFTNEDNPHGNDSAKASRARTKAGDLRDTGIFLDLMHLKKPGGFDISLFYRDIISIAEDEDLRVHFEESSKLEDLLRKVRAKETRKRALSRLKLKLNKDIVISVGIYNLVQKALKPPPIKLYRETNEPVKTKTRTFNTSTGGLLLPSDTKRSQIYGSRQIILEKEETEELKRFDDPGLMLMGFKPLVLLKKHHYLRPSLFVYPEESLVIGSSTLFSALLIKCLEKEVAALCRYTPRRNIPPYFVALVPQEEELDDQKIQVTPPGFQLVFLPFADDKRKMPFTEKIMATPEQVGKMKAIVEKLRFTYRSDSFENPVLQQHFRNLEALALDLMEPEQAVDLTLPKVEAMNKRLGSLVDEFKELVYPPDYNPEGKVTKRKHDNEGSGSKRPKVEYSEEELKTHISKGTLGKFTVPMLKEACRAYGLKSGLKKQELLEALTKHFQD", "UniProt Q9H7E2": "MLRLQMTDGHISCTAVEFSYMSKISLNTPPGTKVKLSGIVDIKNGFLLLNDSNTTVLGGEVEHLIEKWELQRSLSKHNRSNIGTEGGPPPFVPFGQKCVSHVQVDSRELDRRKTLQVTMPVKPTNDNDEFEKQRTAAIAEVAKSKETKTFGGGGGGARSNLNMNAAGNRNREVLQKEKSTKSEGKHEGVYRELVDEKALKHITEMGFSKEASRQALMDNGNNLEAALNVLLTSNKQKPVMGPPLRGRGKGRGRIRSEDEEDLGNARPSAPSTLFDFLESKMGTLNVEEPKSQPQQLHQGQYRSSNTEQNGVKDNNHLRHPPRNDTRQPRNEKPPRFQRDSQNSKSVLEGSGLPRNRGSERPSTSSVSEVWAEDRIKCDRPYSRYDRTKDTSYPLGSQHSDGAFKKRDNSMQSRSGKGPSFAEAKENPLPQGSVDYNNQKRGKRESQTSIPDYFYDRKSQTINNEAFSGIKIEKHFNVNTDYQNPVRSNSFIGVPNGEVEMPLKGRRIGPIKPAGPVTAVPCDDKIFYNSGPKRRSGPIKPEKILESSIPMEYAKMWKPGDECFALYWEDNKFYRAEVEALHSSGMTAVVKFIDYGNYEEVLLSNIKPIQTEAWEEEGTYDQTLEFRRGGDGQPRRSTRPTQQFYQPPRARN"}, "source": "paper PMC4695059", "molecules": {"B1": {"name": "CBX8 (protein, UniProt Q9HC52 1-389)", "chain": "MELSAVGERVFAAEALLKRRIRKGRMEYLVKWKGWSQKYSTWEPEENILDARLLAAFEEREREMELYGPKKRGPKPKTFLLKAQAKAKAKTYEFRSDSARGIRIPYPGRSPQDLASTSRAREGLRNMGLSPPASSTSTSSTCRAEAPRDRDRDRDRDRERDRERERERERERERERERERGTSRVDDKPSSPGDSSKKRGPKPRKELPDPSQRPLGEPSAGLGEYLKGRKLDDTPSGAGKFPAGHSVIQLARRQDSDLVQCGVTSPSSAEATGKLAVDTFPARVIKHRAAFLEAKGQGALDPNGTRVRHGSGPPSSGGGLYRDMGAQGGRPSLIARIPVARILGDPEEESWSPSLTNLEKVVVTDVTSNFLTVTIKESNTDQGFFKEKR"}}, "experiment_in_all_cases": "co-IP; endogenous proteins from A549 and BEAS-2B lysates (400 μg protein, non-denaturing lysis buffer with 1% Nonidet P-40) immunoprecipitated with antibodies against mdig, XRCC6, RbAp48 (RBBP4), CBX8 or TDRD3 on Protein A/G PLUS-Agarose, 4°C overnight; Western blotting", "key": {"[1]": {"target": "mineral dust-induced gene (mdig) protein (human (endogenous in A549, BEAS-2B, H929)) (UniProt Q8IUF8)"}, "[2]": {"target": "retinoblastoma-binding protein 4 (RBBP4) (human (endogenous in A549, BEAS-2B)) (UniProt Q09028)"}, "[3]": {"target": "XRCC6 (Ku70) (human (endogenous in A549, BEAS-2B, H929)) (UniProt P12956)"}, "[4]": {"target": "mineral dust-induced gene (mdig) protein (human (endogenous in A549, BEAS-2B, H929)) (UniProt Q8IUF8)", "remark": "listed apart in the source"}}, "note": "Like-named read-outs stand apart in the source and are kept apart here. No constants are given. Whether binding was seen depends on the method and setting. In cells and extracts the contact can be indirect. Some entries that bind do so weakly or less than the wild type."}
{"molecule": "retinoblastoma-binding protein 4 (RBBP4) (from UniProt Q09028 1-425)", "values": [{"measurement": "binding", "setting": "[1]", "value": "binds"}]}
{"molecule": "TDRD3 (from UniProt Q9H7E2 1-651)", "values": [{"measurement": "binding", "setting": "[1]", "value": "binds weakly"}]}
{"molecule": "XRCC6 (Ku70) (from UniProt P12956 1-609)", "values": [{"measurement": "binding", "setting": "[2]", "value": "no binding"}, {"measurement": "binding", "setting": "[1]", "value": "binds"}]}
{"molecule": "mineral dust-induced gene (mdig) protein (from UniProt Q8IUF8 1-465)", "values": [{"measurement": "binding", "setting": "[2]", "value": "binds"}, {"measurement": "binding", "setting": "[3]", "value": "binds"}]}
{"molecule": "B1", "values": [{"measurement": "binding", "setting": "[4]", "value": "binds"}]}
